Data as given in PubChem BioAssay (Tox21).
Values joined by “and” are separate entries in the source; they are usually repeats but may differ in a detail not shown here. Identical values can stand only once. The shares of active, inactive and inconclusive entries below differ from those in the screen. A potency beside an inconclusive call is a rough fit, not a confirmed value. Active and inactive are the calls of the source. The call rests on the fitted dose curve; in most records, active means well fitted inhibition curve with a large enough effect in the repeat runs; inconclusive means weak or mixed curves; inactive means no such curve, though single readings can be large or run the other way.
On the % scale 0 is the no-effect control and ±100 the full control effect; potency means the concentration at half of the fitted maximal effect; tags describe the fitted curve by direction and shape.

The compounds below were run against Cytochrome P450 2C19 (Homo sapiens) (UniProt P33261) (assay: Cytochrome P450 Family 2 Subfamily C Member 19 (CYP2C19) small molecule antagonists: luciferase reporter qHTS assay (AID 1671197; further: nearly all actives have a fitted effect of over 65% in size)). Conditions: P450-Glo CYP2C19 enzyme, luciferin luminescence, 1 h; series mostly up to 115 µM; activity change, negative = inhibition: at the top concentration.
Sequence of UniProt P33261 (P33261 whole entry, looked up): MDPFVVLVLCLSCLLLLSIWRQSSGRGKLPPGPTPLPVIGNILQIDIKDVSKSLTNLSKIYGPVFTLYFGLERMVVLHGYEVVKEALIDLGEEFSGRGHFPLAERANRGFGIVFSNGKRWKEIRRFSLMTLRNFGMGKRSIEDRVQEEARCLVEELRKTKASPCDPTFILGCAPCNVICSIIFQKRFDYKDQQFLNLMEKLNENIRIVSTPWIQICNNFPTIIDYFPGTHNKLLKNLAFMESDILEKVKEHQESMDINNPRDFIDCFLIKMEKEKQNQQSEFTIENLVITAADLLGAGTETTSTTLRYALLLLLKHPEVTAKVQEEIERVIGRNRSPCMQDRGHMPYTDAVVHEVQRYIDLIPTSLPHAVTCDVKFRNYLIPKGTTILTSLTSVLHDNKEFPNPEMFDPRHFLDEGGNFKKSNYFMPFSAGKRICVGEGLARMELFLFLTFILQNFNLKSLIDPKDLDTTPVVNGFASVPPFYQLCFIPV
Excerpt: National Center for Advancing Translational Sciences [NCATS]
U.S. Environmental Protection Agency [EPA]
National Institutes of Environmental Health Sciences [NIEHS]
National Toxicology Program [NTP]
U.S. Food and Drug Administration [FDA]
Cytochrome P450 (CYP) enzymes are membrane-bound hemeproteins that play a key role in metabolism of drugs and xenobiotics. Evaluation of the effect of chemicals on CYP isozymes is useful to minimize the adverse drug reactions and toxicities in drug development process. Tox21 chemicals were tested for their effect on CYP enzyme activities by using P450-Glo (TM) screening systems (Promega Corporation, Madison, WI). These systems provide a luminescent method containing proluciferin substrates and are converted to luciferin products by CYP isozymes. The luciferin products formed are detected with a luciferin detection reagent, and the amount of light produced is proportional to CYP activity. P450-Glo (TM) CYP2C19 screening system (Catalog. No. V9880) was used to detect the compounds that interfere in CYP2C19 activity. The positive control compound used for CYP2C19 assay is ketoconazole (Sigma-Aldrich, St. Louis, MO).
Tox21 Assay Protocol Summary:
Two ul of enzyme-substrate mix was dispensed into medium binding white/solid 1536-well plates (Greiner Bio-One North America Inc., Monroe, NC) using a BioRaptr Flying Reagent Dispenser (FRD, Beckman Coulter, Brea, CA). Compounds dissolved in DMSO and positive control (ketoconazole) were transferred to the assay plates at 23 nl using a Pintool station (Wako, San Diego, CA). The assay plates were incubated at room temperature for 10 min. Then 2 ul of NADPH regeneration solution was added to each well of the assay plates using an FRD and incubated at 37C for 1 h. The reaction was stopped by adding 4 ul of detection reagent using an FRD and after 20 min incubation at room temperature the luminescence signal was measured using a ViewLux plate reader (Perkin Elmer, Shelton, CT). Data were expressed as relative luminescence units.
For `CCCN(CCC)S(=O)(=O)c1ccc(C(=O)O)cc1`, the Potency was “inactive”. For `Clc1cccc(-c2cc(Cl)cc(Cl)c2)c1`, the Potency was active: 30.6 µM. `Nc1ccc2ccccc2c1S(=O)(=O)O` was tested, and the Potency was active: 40.7 µM. In the case of `CNCCS(=O)(=O)O`, the “activity change, negative = inhibition” value was inactive: 0.45%. For `CCOC(CN1CCN(CC(C)C(=O)c2ccccc2)CC1)c1ccccc1` (stereo not given), the Potency was inconclusive: 21.3 µM [inhibitor, single point]. In the case of `COc1cc2nc(N3CCN(C(=O)C4CCCO4)CC3)nc(N)c2cc1OC` (stereo not given), the Potency was inconclusive: 43.6 µM [inhibitor, single point]. In the case of `CCOC(=O)c1cc(=O)c2c(OCC(COc3cccc4oc(C(=O)OCC)cc(=O)c34)OC(=O)[C@@H](N)CCCCN)cccc2o1`, the “activity change, negative = inhibition” value was inactive: -6.7% [at 52.9 µM]. For `Cc1c(-c2ccccc2)oc2c(C(=O)OCCN3CCCCC3)cccc2c1=O`, the “activity change, negative = inhibition” value was inactive: 22.3% [at 52.9 µM]. `COc1cc(C)cc(O)c1` was tested, and the “activity change, negative = inhibition” value was inactive: -30.4%. `CCCc1cc(=O)[nH]c(=S)[nH]1` was tested, and the Potency was inconclusive: 79.6 µM [inhibitor, single point]. `COC(OC)C(C)c1ccccc1` (stereo not given) was tested, and the Potency was inconclusive: 71 µM [inhibitor]. In the case of `CCCCCCCCC/C=C/CC1CC(=O)OC1=O` (stereo not given), the Potency was inconclusive: 89.8 µM [inhibitor, single point] and inconclusive: 89.4 µM [inhibitor, single point]. In the case of `Cc1ccc(S(=O)(=O)NCl)cc1`, the Potency was inconclusive: 76.7 µM [inhibitor, single point]. `CC(C)=NNC(N)=S` was tested, and the Potency was inconclusive: 89.4 µM [inhibitor, single point]. In the case of `CCCCCCCCCCCC(=O)N(C)CC(=O)O`, the Potency was inconclusive: 86.6 µM [inhibitor, single point]. In the case of `CCC(C)(C)C1CCC(O)CC1` (stereo not given), the “activity change, negative = inhibition” value was inactive: 16.1%. With `CN(C)CCCNCCCN` the Potency was inconclusive: 79.3 µM [inhibitor, single point]. `Oc1ccc2c(c1)CCC2` was tested, and the Potency was inconclusive: 89.4 µM [inhibitor, single point]. With `OCC(CO)N[C@H]1C[C@](O)(CO)[C@@H](O)[C@H](O)[C@H]1O` the “activity change, negative = inhibition” value was inactive: 13.4% [at 52.9 µM]. With `CC1=C(C)C(=O)C(CCCCC#CCCCC#CCO)=C(C)C1=O` the Potency was active: 11 µM. `Brc1ccccn1` was tested, and the “activity change, negative = inhibition” value was inactive: -6.94%. `Cc1ccc(/C(=C\CN2CCCC2)c2ccccn2)cc1` was tested, and the Potency was inconclusive: 83.8 µM [inhibitor, single point]. For `CCOC(/C=C(\C)CCC=C(C)C)OCC`, the Potency was inconclusive: 89.4 µM [inhibitor, single point]. In the case of `O=C(O)c1ccc2cc(O)ccc2c1`, the Potency was inconclusive: 78.5 µM [inhibitor, single point]. `C#CCN(C)CCCOc1ccc(Cl)cc1Cl` was tested, and the Potency was active: 3.89 µM. In the case of `CC(C)(N)CO`, the Potency was inconclusive: 35.5 µM [inhibitor, single point] and inconclusive: 83.7 µM [inhibitor, single point]. For `CCn1nc(Cc2ccccc2)cc1C1CCN(C[C@H]2C[C@H](N(C)[C@@H](C(=O)O)C(C)C)C[C@@H]2c2cccc(F)c2)CC1`, the Potency was inconclusive: 63.3 µM [inhibitor, partial curve, poor fit]. For `Cc1ccc(Cl)cc1`, the Potency was inconclusive: 94.4 µM [inhibitor, single point]. With `CCCN1C=CN(C)C1` the Potency was “inactive”. For `O=c1[nH]c2ccc(S(=O)CCN3CCC(Cc4ccc(F)cc4)CC3)cc2o1` (stereo not given), the Potency was active: 56.4 µM. In the case of `CCCOC(C(=O)OC1CCN(C)CC1)(c1ccccc1)c1ccccc1`, the Potency was inconclusive: 1.55 µM [inhibitor, single point]. In the case of `COC(=O)Cc1cccc2ccccc12`, the Potency was active: 79.6 µM. With `O=S(=O)(O)CCN1CCN(CCO)CC1` the “activity change, negative = inhibition” value was inactive: 1.39%. `FC(F)OC(Cl)C(F)(F)F` (stereo not given) was tested, and the Potency was inconclusive: 79.7 µM [inhibitor, single point]. `N#CCC(=O)NN` was tested, and the Potency was inconclusive: 3.89 µM [inhibitor, single point]. In the case of `C1N2CN3CN1CN(C2)C3`, the Potency was inconclusive: 31.5 µM [inhibitor, single point] and inconclusive: 91.5 µM [inhibitor, single point]. `CC(COC(C)(C)C)OCCCO` (stereo not given) was tested, and the Potency was inconclusive: 89.4 µM [inhibitor, single point]. `COCCC(=O)OC` was tested, and the “activity change, negative = inhibition” value was inactive: 18%. For `CCCCCCCCCCCC[N+](C)(C)CC(=O)[O-]`, the Potency was inconclusive: 89.4 µM [inhibitor, single point]. `Cc1ccc(C(=O)C(=O)O)cc1C` was tested, and the “activity change, negative = inhibition” value was inactive: -27.6% [at 52.9 µM].
